Assay results taken from patent US20250059201A1, “CAMPTOTHECIN COMPOUND AND CONJUGATE THEREOF” (priority 2021, published 2025).
Where “and” joins values, the source holds several entries; their conditions need not be identical. Identical values can stand only once. Like-named read-outs stand apart in the source and are kept apart here.

Legend:
NCI-N87 = assay: Proliferation-inhibiting effect on tumor cells (SRB or MTT assay); assay type: cell-based, human; details: NCI-N87, 144 hours
Experimental: (§1) For cells growing by adherence, SRB assay was used to detect effect of antibody-drug conjugates or camptothecins on the proliferation of tumor cells in vitro cultured. A certain number of cells in exponential growth phase were inoculated in 96-well cell culture plates, and when the cells grew by adherence overnight, antibody drug conjugates or camptothecins of different concentrations were added into the cells. 144 hours later, the cells were fixed with trichloroacetic acid, and then stained with SRB (prepared in 1% glacial acetic acid at a concentration of 4 mg/mL). 10 mM Tris solution was added into each well to solubilize the bound SRB. OD values at 510 nm were read on a microplate reader.
(§2) Inhibition (%)=([…] of control well−OD value of dosed well)/OD value of control well×100%
(§3) For cells growing in suspension, MTT assay was used to detect effect of antibody-drug conjugates or camptothecins on the proliferation of tumor cells in vitro cultured. A certain number of cells in exponential growth phase were inoculated in 96-well cell culture plates, and when the cells grew in suspension overnight, antibody-drug conjugates or camptothecins of different concentrations were added into the cells. 144 hours later, MTT was added to each well of the plates, and the incubation was continued for 4 hours at 37° C. in a 5% CO2 saturated humidity incubator. Next, 100 μL of SDS-isobutanol-HCl solution was added into each well of the plates, and OD values at 570 nm and 690 nm were read on a microplate reader.
(§4) Half maximal inhibitory concentration (IC50) was calculated from the inhibition (%) at those different concentrations using the software Graphpad Prism 8.0. The experiment was repeated once and the data was expressed as mean±SD.

[1] = tested on: BxPC-3 cells positive for Trop-2; assay: Internalization function (flow cytometry of fluorescently labeled drug); assay type: cell-based
Experimental: BxPC-3 cells (purchased from: ATCC) were inoculated into 6-well plates, and fluorescently labeled Trop2-ADC-14 and the mAb in Trop2-ADC-14 (i.e., antibody h23-12) each at 1 g/mL were added thereto respectively. The cells were incubated at 37° C. for 3, 6, 12, 18, 24, and 48 hours respectively, and then were digested with trypsin. The Trop2-ADC-14 and the mAb h23-12 not internalized were washed away, and fluorescence intensity was measured with a flow cytometer (BD ACCURI C6 PLUS). The experiment was repeated once.

[2] = tested on: HS-746T tumor cells expressing antigen of low abundance; assay: Cell killing effect in vitro on tumor cells expressing antigen of low abundance (flow cytometry cell count); assay type: cell-based; details: 168 hours
Experimental: HS-746T cells were purchased from ATCC. The cells were cultured in RPMI 1640/IMEM (1:1) containing 10% Fetal Bovine Serum (FBS) with penicillin and streptomycin supplemented simultaneously, and cultured at 37° C. in air containing 5% CO2 in an incubator.
After inoculation, the cells were treated for 168 hours respectively with 0.1 g/mL and 1 g/mL Trop2-ADC-1, Trop2-ADC-2, Trop2-ADC-5, Trop2-ADC-10, and Trop2-ADC-14, and then the cells were harvested and counted. Next, the cells were incubated with Dylight 488 NHS Ester labeled ADCs targeting Trop-2 described above at 4° C. for 1 hour in dark, and then centrifuged to remove supernatant, re-suspended in phosphate buffer (PBS, pH7.4), washed with PBS (pH7.4) three times, and the number of HS-746T cells was detected and calculated using a flow cytometer BD ACCURI C6 PLUS.

[3] = tested on: BxPC3 cell line having high expression of Trop-2; assay: Cell killing effect in vitro of ADCs targeting Trop-2 (MTS); assay type: cell-based, human; details: BXPC3: 5000 cells/well, 120 h
Experimental: BxPC3 cell line having high expression of Trop-2 (purchased from: ATCC) was taken from liquid nitrogen, and recovered. Then the density of the cells was adjusted to 5×10^4/mL with complete medium, and the cells were added to cell culture plates (96-well plates were used, and sterile PBS or sterile purified water was added at 200 µL/well into rows A and H, and columns 1 and 12 of the plates) at 100 μL/well, and cultured overnight.
Samples of ADCs targeting Trop-2 prepared above were diluted respectively to 50 µg/ml using complete medium, followed by 4-fold gradient dilution, and 9 concentrations and concentration zero were obtained. The diluted samples were added into the cell culture plates, and three duplicate wells were set for each of the diluted samples; and a negative control well (cell+medium) and a blank control well (no cells, medium only) were set in column 11 of the plates. Next, the plates were placed in a cell incubator and the cells were incubated for 120 h. After the incubation, MTS was added at 40 μL/well to the plates which were then placed back into the 37° C. incubator and allowed for reacting for 2-4 h. Then the cell plates were taken out, and OD values at 490 nm were read on a microplate reader.

MDA-MB-468 = assay: Proliferation-inhibiting effect on tumor cells (SRB or MTT assay); assay type: cell-based; details: MDA-MB-468, 144 hours
Experimental: as §1, §2, §3, §4

MDA-MB-231/TROP2 = assay: as above; assay type: cell-based; details: MDA-MB-231/TROP2, 144 hours
Experimental: as §1, §2, §3, §4

BT-20 = assay: as above; assay type: cell-based; details: BT-20, 144 hours
Experimental: as §1, §2, §3, §4

BT-474 = assay: as above; assay type: cell-based; details: BT-474, 144 hours
Experimental: as §1, §2, §3, §4

MDA-MB-231 = assay: as above; assay type: cell-based; details: MDA-MB-231, 144 hours
Experimental: as §1, §2, §3, §4

Colo 205 = assay: as above; assay type: cell-based; details: Colo 205, 144 hours
Experimental: as §1, §2, §3, §4

MCF-7 = assay: as above; assay type: cell-based; details: MCF-7, 144 hours
Experimental: as §1, §2, §3, §4

[4] = read-out: IC50 (nM) 1st experiment
[5] = read-out: IC50 (nM) 2nd experiment

B1: Trop2-ADC-14 (conjugate)
heavy: QVQLVQSGAEVKKPGASVKVSCKASGYTFTSYWMHWVRQAPGQGLEWMGEITPSDNYGSYNQKFKGRVTITRDTSTSTAYMELSSLRSEDTAVYYCARGHGNYVSFDYWGQGTLVTVSSASTKGPSVFPLAPSSKSTSGGTAALGCLVKDYFPEPVTVSWNSGALTSGVHTFPAVLQSSGLYSLSSVVTVPSSSLGTQTYICNVNHKPSNTKVDKRV[not shown - human IgG1 Fc]
light: DIQMTQSPSSLSASVGDRVTITCRASQDISNYLNWYQQKPGKAPKLLIYYTSRLESGVPSRFSGSGSGTDFTLTISSLQPEDFATYFCQQGYTLPPYTFGQGTKLEIKRTVAAPSVFIFPPSDEQLKSGTASVVCLLNNFYPREAKVQWKVDNALQSGNSQESVTEQDSKDSTYSLSSTLTLSKADYEKHKVYACEVTHQGLSSPVTKSFNRGEC
**Q.** B1 was tested. Which IC50 (NCI-N87; [4]) did it give?
**A.** Its IC50 is 0.4 nM.

**Q.** And the IC50 (NCI-N87; [5])?
**A.** The IC50 was 0.54 nM.

**Q.** And the IC50 (NCI-N87; read-out: IC50 (nM) Mean ± SD)?
**A.** Its IC50 is 0.47 ± 0.1 nM.

**Q.** And the internalization ([1]; BxPC-3, 37° C., 3 to 48 hours, time-dependent)?
**A.** The internalization was “internalized into the cells”.

**Q.** What about the “internalization compared with antibody h23-12” value ([1]; BxPC-3, 24 hour) of the same molecule?
**A.** The value was “internalized more at 24 hour than antibody h23-12”.

**Q.** And the “Inhibition (%)” value ([2]; 0.1 μg/mL)?
**A.** The value was 40.5%.

**Q.** What about the “Number of cells (single cells having low expression)” value ([2]; 0.1 μg/mL) of the same molecule?
**A.** Its value is 210600.

**Q.** And the “Inhibition (%)” value ([2]; 1 μg/mL)?
**A.** The value was 41.7%.

**Q.** What about the “Number of cells (single cells having low expression)” value ([2]; 1 μg/mL) of the same molecule?
**A.** The value was 206100.

**Q.** And the “EC50” value [3]?
**A.** The value was 67.11 ng/mL and 71.87 ng/mL and 73.4 ng/mL and 70.2 ng/mL.

**Q.** And the “Maximum cell killing effect (%)” value [3]?
**A.** The value was 82.2% and 84.6% and 85.2% and 83.1%.

**Q.** What about the IC50 (MDA-MB-468; [4]) of the same molecule?
**A.** The IC50 was 7.26 nM.

**Q.** What about the IC50 (MDA-MB-468; [5]) of the same molecule?
**A.** Its IC50 is 5.13 nM.

**Q.** And the IC50 (MDA-MB-468; read-out: IC50 (nM) Mean ± SD)?
**A.** The IC50 was 6.2 ± 1.51 nM.

**Q.** And the IC50 (MDA-MB-231/TROP2; [4])?
**A.** Its IC50 is 0.05 nM.

**Q.** What about the IC50 (MDA-MB-231/TROP2; [5]) of the same molecule?
**A.** The IC50 was 0.11 nM.

**Q.** What about the IC50 (MDA-MB-231/TROP2; read-out: IC50 (nM) Mean ± SD) of the same molecule?
**A.** The IC50 was 0.08 ± 0.05 nM.

**Q.** And the IC50 (BT-20; [4])?
**A.** The IC50 was greater than 65.4 nM.

**Q.** And the IC50 (BT-20; [5])?
**A.** Its IC50 is greater than 65.4 nM.

**Q.** And the IC50 (BT-20; read-out: IC50 (nM) Mean ± SD)?
**A.** Its IC50 is greater than 65.4 nM.

**Q.** What about the IC50 (BT-474; [4]) of the same molecule?
**A.** Its IC50 is greater than 65.4 nM.

**Q.** And the IC50 (BT-474; [5])?
**A.** The IC50 was greater than 65.4 nM.

**Q.** What about the IC50 (BT-474; read-out: IC50 (nM) Mean ± SD) of the same molecule?
**A.** The IC50 was greater than 65.4 nM.

**Q.** What about the IC50 (MDA-MB-231; [4]) of the same molecule?
**A.** Its IC50 is greater than 654 nM.

**Q.** And the IC50 (MDA-MB-231; [5])?
**A.** The IC50 was greater than 654 nM.

**Q.** And the IC50 (MDA-MB-231; read-out: IC50 (nM) Mean ± SD)?
**A.** Its IC50 is greater than 654 nM.

**Q.** What about the IC50 (Colo 205; [4]) of the same molecule?
**A.** Its IC50 is greater than 65.4 nM.

**Q.** What about the IC50 (Colo 205; [5]) of the same molecule?
**A.** The IC50 was greater than 65.4 nM.

**Q.** And the IC50 (Colo 205; read-out: IC50 (nM) Mean ± SD)?
**A.** Its IC50 is greater than 65.4 nM.

**Q.** What about the IC50 (MCF-7; [4]) of the same molecule?
**A.** The IC50 was greater than 65.4 nM.

**Q.** And the IC50 (MCF-7; [5])?
**A.** The IC50 was greater than 65.4 nM.

**Q.** What about the IC50 (MCF-7; read-out: IC50 (nM) Mean ± SD) of the same molecule?
**A.** The IC50 was greater than 65.4 nM.
